{
  "source": "paper PMC4336329",
  "about": "(PLoS ONE, 2015)",
  "note": "Out of some 310,000 compounds screened, about 2,200 (0.71%) showed an effect of 50% or more. The effect is printed as a negative number. The list shows a part of the results.",
  "data": [
    {"biological_target": "human ether-à-go-go-related gene (hERG) potassium channel (human, UniProt Q12809)", "sequence (Q12809 whole entry, looked up)": "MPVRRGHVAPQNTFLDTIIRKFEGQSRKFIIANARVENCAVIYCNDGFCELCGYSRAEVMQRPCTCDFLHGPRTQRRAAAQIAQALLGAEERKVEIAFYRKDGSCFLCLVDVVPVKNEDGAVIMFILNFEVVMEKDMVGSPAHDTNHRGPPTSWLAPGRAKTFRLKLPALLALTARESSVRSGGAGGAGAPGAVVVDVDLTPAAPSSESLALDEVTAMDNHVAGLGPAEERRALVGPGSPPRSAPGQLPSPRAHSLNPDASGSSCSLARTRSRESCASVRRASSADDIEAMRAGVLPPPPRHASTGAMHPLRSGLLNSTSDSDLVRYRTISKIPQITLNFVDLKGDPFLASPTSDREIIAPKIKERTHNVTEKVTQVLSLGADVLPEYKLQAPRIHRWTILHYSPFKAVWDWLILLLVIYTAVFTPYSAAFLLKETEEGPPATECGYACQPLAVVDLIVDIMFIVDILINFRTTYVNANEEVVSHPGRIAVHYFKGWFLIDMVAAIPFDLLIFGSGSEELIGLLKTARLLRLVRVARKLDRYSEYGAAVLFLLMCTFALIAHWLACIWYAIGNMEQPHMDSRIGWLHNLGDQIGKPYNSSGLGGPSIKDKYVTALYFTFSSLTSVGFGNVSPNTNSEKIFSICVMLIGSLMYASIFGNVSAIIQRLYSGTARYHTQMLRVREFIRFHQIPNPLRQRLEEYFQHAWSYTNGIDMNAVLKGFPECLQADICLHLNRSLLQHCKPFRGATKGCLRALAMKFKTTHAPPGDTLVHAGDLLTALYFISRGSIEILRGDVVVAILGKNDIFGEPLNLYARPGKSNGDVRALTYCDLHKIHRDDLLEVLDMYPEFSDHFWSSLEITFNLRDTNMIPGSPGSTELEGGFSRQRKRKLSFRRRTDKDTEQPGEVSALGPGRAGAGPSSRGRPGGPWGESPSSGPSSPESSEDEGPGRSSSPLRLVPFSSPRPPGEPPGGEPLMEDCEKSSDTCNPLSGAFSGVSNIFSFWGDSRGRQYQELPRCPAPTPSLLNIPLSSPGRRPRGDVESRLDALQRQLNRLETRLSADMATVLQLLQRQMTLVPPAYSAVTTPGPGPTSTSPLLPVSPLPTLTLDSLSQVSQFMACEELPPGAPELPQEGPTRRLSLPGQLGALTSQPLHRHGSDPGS", "test": "primary screen, population patch clamp on CHO cells stably expressing hERG", "units": {"hERG current change (%, negative = inhibition) at 1uM": "%"}, "values": [
      {"smiles": "CCOc1ccc(N2C(=O)C3C(c4ccc(O)cc4)NC(CCSC)(C(=O)OC)C3C2=O)cc1", "note": "(stereo not shown)", "hERG current change (%, negative = inhibition) at 1uM": 4.05},
      {"smiles": "CC1CCCCN1C(C(=O)O)c1ccccc1.Cl", "note": "(stereo not shown)", "hERG current change (%, negative = inhibition) at 1uM": 17.1},
      {"smiles": "COc1cc(/C=N/NS(=O)(=O)c2ccc(C)c([N+](=O)[O-])c2)ccc1O", "hERG current change (%, negative = inhibition) at 1uM": 11.9},
      {"smiles": "Cc1cccc(-c2nnc3n2N=C(c2ccc(Br)cc2)CS3)c1", "hERG current change (%, negative = inhibition) at 1uM": -18.7},
      {"smiles": "COc1ccccc1OCC(=O)Nc1ccccc1C(=O)N1CCCC1", "hERG current change (%, negative = inhibition) at 1uM": 5.81},
      {"smiles": "CNC(=O)CSc1nnc(-c2cnccn2)n1C", "hERG current change (%, negative = inhibition) at 1uM": 11},
      {"smiles": "O=C(Cn1c(COc2ccccc2)nc2ccccc21)Nc1cccc(Cl)c1", "hERG current change (%, negative = inhibition) at 1uM": 10.8},
      {"smiles": "O=C(NCc1n[nH]c(=S)n1-c1ccc(F)cc1)c1ccco1", "hERG current change (%, negative = inhibition) at 1uM": -0.204},
      {"smiles": "O=S(=O)(c1ccc(Cl)cc1)N1CCC(O)(c2cccnc2)CC1", "hERG current change (%, negative = inhibition) at 1uM": 5.94},
      {"smiles": "CC(C)C(OC(=O)CN1C(=O)c2ccccc2C1=O)C(=O)NC1CCCC1", "note": "(stereo not shown)", "hERG current change (%, negative = inhibition) at 1uM": 19.6},
      {"smiles": "Cc1ccc(Oc2ccc(NC(=O)CCC(=O)OCC(=O)c3cccs3)cc2)cc1C", "hERG current change (%, negative = inhibition) at 1uM": 7.01},
      {"smiles": "CCOC(=O)CNC(=O)N1CCCC(C(=O)c2cc(C)c(OC)c(C)c2)C1", "note": "(stereo not shown)", "hERG current change (%, negative = inhibition) at 1uM": 14.4},
      {"smiles": "Cc1ccc(-c2c(CC(=O)O)c(C)nc3sc4c(c23)CCCC4)cc1.Cl", "hERG current change (%, negative = inhibition) at 1uM": 13.6},
      {"smiles": "COc1ccc(-n2c(=S)[nH]c3cc(C(=O)NCCCN4CCCC4=O)ccc3c2=O)cc1OC", "hERG current change (%, negative = inhibition) at 1uM": 15.3},
      {"smiles": "CC(Sc1nnc(COc2ccc([N+](=O)[O-])cc2)n1-c1ccccc1)C(=O)O", "note": "(stereo not shown)", "hERG current change (%, negative = inhibition) at 1uM": 6.23},
      {"smiles": "COc1c(C)cc(C(=O)C2CCCN(C(=O)c3ccc4cc[nH]c4c3)C2)cc1C", "note": "(stereo not shown)", "hERG current change (%, negative = inhibition) at 1uM": 12.5},
      {"smiles": "Cc1csc2ncc(C(=O)NCc3ccccc3Cl)c(=O)n12", "hERG current change (%, negative = inhibition) at 1uM": 7.61},
      {"smiles": "COc1ccccc1OCc1ccc(C(=O)NCc2cccnc2)o1", "hERG current change (%, negative = inhibition) at 1uM": 7.68},
      {"smiles": "O=C(CC1CC2CCC1C2)OCC(=O)c1c[nH]c2ccccc12", "note": "(stereo not shown)", "hERG current change (%, negative = inhibition) at 1uM": 10.4},
      {"smiles": "O=C(NCC(c1cccs1)N1CCc2ccccc21)c1ccccc1", "note": "(stereo not shown)", "hERG current change (%, negative = inhibition) at 1uM": 4.64},
      {"smiles": "COc1ccc(OC)c(NC(=O)Cn2cc(C#N)c3ccccc32)c1", "hERG current change (%, negative = inhibition) at 1uM": 9.76},
      {"smiles": "CCOC(=O)c1c(N)sc(C(=O)Nc2ccccc2F)c1C", "hERG current change (%, negative = inhibition) at 1uM": 21},
      {"smiles": "Cc1oc(-c2ccccc2Cl)nc1CN1CCCCC1c1cccnc1", "note": "(stereo not shown)", "hERG current change (%, negative = inhibition) at 1uM": 3.12},
      {"smiles": "CN(C)/C=C(\\C#N)C(=O)N/N=C/c1ccccc1", "hERG current change (%, negative = inhibition) at 1uM": 5.17},
      {"smiles": "Cc1ccc(NC(=O)c2sc3nc(C)cc(C)c3c2N)cc1", "hERG current change (%, negative = inhibition) at 1uM": 19.3},
      {"smiles": "O=C(Nc1ccc(Br)cn1)c1cccc2c1-c1ccccc1C2=O", "hERG current change (%, negative = inhibition) at 1uM": 8.1},
      {"smiles": "CCC1CCCCN1C(=O)COC(=O)c1n[nH]c2ccccc12", "note": "(stereo not shown)", "hERG current change (%, negative = inhibition) at 1uM": -5.75},
      {"smiles": "Cc1ccc(/C=C/c2nc3ccccc3[nH]2)o1", "hERG current change (%, negative = inhibition) at 1uM": 10.5},
      {"smiles": "COc1cc(OC)c(C2=NOC(C(=O)Nc3c(C)nn(CC(=O)N4CCCC4)c3C)C2)cc1Cl", "note": "(stereo not shown)", "hERG current change (%, negative = inhibition) at 1uM": 3.25},
      {"smiles": "CCCc1cc(=O)[nH]c(SCC(=O)Nc2sc3c(c2C#N)CCCC3)n1", "hERG current change (%, negative = inhibition) at 1uM": 4.53},
      {"smiles": "COc1ccc(N(CC(O)Cn2c(C)nc3ccccc32)S(=O)(=O)c2ccccc2)cc1", "note": "(stereo not shown)", "hERG current change (%, negative = inhibition) at 1uM": 2.4},
      {"smiles": "CCOC(=O)c1ccc(NC(=O)CN2C(=O)CCC2=O)cc1", "hERG current change (%, negative = inhibition) at 1uM": 11.5},
      {"smiles": "Cc1cc(NC(=O)c2ccc(F)cc2)n(C)n1", "hERG current change (%, negative = inhibition) at 1uM": 10},
      {"smiles": "O=C(Nc1ccccc1)c1ccccc1OCc1ccc(F)cc1", "hERG current change (%, negative = inhibition) at 1uM": 15.8},
      {"smiles": "OC1CCN(c2cc(-c3ccccc3)nc3cc(-c4ccc(F)cc4)nn23)CC1", "hERG current change (%, negative = inhibition) at 1uM": 7.59},
      {"smiles": "COc1ccc(NC(=O)CSCC(=O)NCc2cccc(C(F)(F)F)c2)cc1", "hERG current change (%, negative = inhibition) at 1uM": 9.74},
      {"smiles": "Cc1ccc(-n2c(C)cc(C=C3C(=O)CC(C)(C)CC3=O)c2C)cc1", "hERG current change (%, negative = inhibition) at 1uM": 3.36},
      {"smiles": "O=C(NCCCN1CCCC1=O)Nc1ccc(Cl)cc1", "hERG current change (%, negative = inhibition) at 1uM": 4.59},
      {"smiles": "Cc1ccc(-n2ncc3c(N4CCN(c5ccc(F)cc5)CC4)ncnc32)c(C)c1", "hERG current change (%, negative = inhibition) at 1uM": 15.1},
      {"smiles": "Cc1ccc(NC(=S)NNC(=S)NCc2ccccc2)cc1", "hERG current change (%, negative = inhibition) at 1uM": 11.2},
      {"smiles": "CCN1C(=O)[C@H]2[C@@H](c3ccc(-c4cc(C(C)=O)cs4)cc3)N3CCC[C@@]3(C(=O)OC)[C@H]2C1=O.O=C(O)C(F)(F)F", "hERG current change (%, negative = inhibition) at 1uM": 8.31},
      {"smiles": "COc1ccc(Cl)cc1NC(=O)CCn1c(=O)oc2ccccc21", "hERG current change (%, negative = inhibition) at 1uM": 9.53},
      {"smiles": "Cc1sc2nc(SCC(=O)N(C)Cc3ccccc3)n(-c3ccccc3)c(=O)c2c1C", "hERG current change (%, negative = inhibition) at 1uM": 13.1},
      {"smiles": "Cc1cc(=O)oc2cc(NC(=O)CC3(CC(=O)O)CCCC3)ccc12", "hERG current change (%, negative = inhibition) at 1uM": 7.35},
      {"smiles": "CCOC(=O)c1c(NC(=O)COC(=O)Cc2n[nH]c(=O)c3ccccc23)sc(C(=O)N(C)C)c1C", "hERG current change (%, negative = inhibition) at 1uM": 9.98},
      {"smiles": "CC1(C)O[C@@H]2[C@H](O1)[C@@H](CO)O[C@H]2n1c(N2CCCCC2)nc2c(N)ncnc21", "hERG current change (%, negative = inhibition) at 1uM": 5.18},
      {"smiles": "Cc1cccc(-n2c(O)c(/C=N/NC(=O)c3ccccc3Cl)c3ccccc3c2=O)n1", "hERG current change (%, negative = inhibition) at 1uM": 9.11},
      {"smiles": "CCOc1cc(N2CCOCC2)c(OCC)cc1NC(=O)COC(=O)c1cc2ccccc2cc1O", "hERG current change (%, negative = inhibition) at 1uM": 4.74},
      {"smiles": "Nc1ccc(S(=O)(=O)NC2=NCCCCC2)cc1N", "hERG current change (%, negative = inhibition) at 1uM": 12.2},
      {"smiles": "C(=N\\n1cnnc1)/c1cccc(Oc2ccccc2)c1", "hERG current change (%, negative = inhibition) at 1uM": 10.7},
      {"smiles": "Cc1ccc(C(=O)Nc2ccc(F)cc2)cc1NC1=NC2CS(=O)(=O)CC2S1", "note": "(stereo not shown)", "hERG current change (%, negative = inhibition) at 1uM": 10.6},
      {"smiles": "COn1c(-c2ccccc2)c(C=O)c2ccccc21", "hERG current change (%, negative = inhibition) at 1uM": 12.2},
      {"smiles": "Cc1cc(F)ccc1NC(=O)c1cc(S(=O)(=O)N2CCOCC2)cn1C", "hERG current change (%, negative = inhibition) at 1uM": -5.95},
      {"smiles": "COCC(=O)N1CCC(Oc2ccc(C(=O)NCc3cc(C)n(C)n3)cc2)CC1", "hERG current change (%, negative = inhibition) at 1uM": 9.09},
      {"smiles": "CCNC(=O)/C(C#N)=C/c1c(N2CCN(c3ccccc3)CC2)nc2ccccn2c1=O", "hERG current change (%, negative = inhibition) at 1uM": -4.54}
    ]}
  ]
}
